About 340 (0.77%) of roughly 44,000 compounds were called active. Another 5% or so got no clear call; they are omitted. Calls come from the whole dose curve; as a rule, active = well fitted inhibition curve with a large enough effect; inconclusive = small, poorly fitted or top-dose-only effect; inactive = flat fitted curve, though single readings scatter. This is one part of the list.
Assay: Acumen qHTS Assay for Inhibitors of the mTORC1 Signaling Pathway in MEF (Tsc2-/-, p53-/-) Cells: Sytravon;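 note: plate controls were DMSO for no effect and rapamycin for full effect; nearly all actives have a fitted effect of over 50% in size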
Details: phospho-rpS6 immunofluorescence/PI, 24 h; series mostly up to 38.3 µM; activity change, negative = inhibition: at the top concentration
In short: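 Immunofluorescence of rpS6 phosphorylation in Tsc2-/-, p53-/- MEFs after 24 h compound exposure, normalized to propidium iodide signal. Activity is expressed as % positive cells, thresholded with 7.5 nM rapamycin.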

Activity change, negative = inhibition, inactive:
Cc1ccc(Cl)cc1-n1ncc2c(N3CCC(C(N)=O)CC3)ncnc21 -1.29%, CNc1oc(/C=C/c2cc(OC)c(OC)c(OC)c2)nc1C#N 1.78%, O=C(OCC1CCCO1)c1ccc2c(c1)N(Cc1ccccc1F)C(=O)c1ccccc1S2(=O)=O (stereo not given) -0.672%, CCOc1ccccc1NC(=O)CSc1nccn1Cc1ccc(F)cc1 -7.94%, Cc1ccc(-n2c(=O)c3ccc(C(=O)NCc4ccccc4Cl)cc3n(CC(N)=O)c2=O)cc1 -19.8%, Cc1ccccc1C(=O)Nc1ccc(C(=O)OCc2cc(=O)n3c4c(sc3n2)CCCC4)cc1 8.98%, Cc1cccc(CNC(=O)c2cnc3sc(N4CCOCC4)nn3c2=O)c1 5.57%, Cc1ccc(C(=O)Nc2ccc(F)cc2)cc1S(=O)(=O)N1CCOCC1 2.72%, COc1ccc(NC(=O)C2CCN(C(=O)c3sc4nc[nH]c(=O)c4c3C)CC2)cc1Cl -0.708%, CN(CC(=O)Nc1ccc(Br)cc1)S(=O)(=O)c1cccc2nsnc12 -1.17%, COc1ccccc1NC(=O)CSc1nc2c(oc3ccccc32)c(=O)n1-c1ccccc1F 3.05%, Cc1cc2oc(C(=O)N(Cc3ccc(N(C)C)cc3)CC3CCCO3)c(C)c2cc1Cl (stereo not given) 2.72%, CN1C(=O)Cc2cc(S(=O)(=O)CCC(=O)N3CCN(c4ccc(Cl)cc4)CC3)ccc21 5.43%, COc1ccc(NC(=O)c2oc3ccccc3c2NC(=O)c2cc(C)cc(C)c2)c(OC)c1 1.86%, CCOC(=O)C1CCN(c2nc3ccccc3nc2Cl)CC1 -22.8%, Cc1cc(C)c(NC(=O)C(=O)NCC(c2cccnc2)N2CCN(c3ccccc3F)CC2)c(C)c1 (stereo not given) -5.31%, CCc1cccc(NC(=O)c2cc3c(s2)-c2ccccc2OC3)c1 -10.1%, CC(=O)Nc1cccc(NC(=O)CSc2nccn2C2CCCC2)c1 4.64%, O=C(CN1C(=O)c2cccc3cccc1c23)Nc1cccc(F)c1 -2.89%, C=Cc1ccc(Cn2c(C)c(CNCc3ccc(SC)cc3)c(C(=O)O)c2C)cc1 1.36%, CN(Cc1ccccc1)c1ccc(-c2nc(-c3ccccc3)no2)cc1[N+](=O)[O-] -0.884%, COC(=O)c1ccc2c(=O)n3nc(Nc4cc(OC)ccc4OC)sc3nc2c1 2.69%, Cc1ccccc1NC(=O)CSC1=Nc2ccccc2C2=NC(Cc3ccccc3)C(=O)N12 (stereo not given) 0%, Cc1ccc(OCc2nc(C#N)c(NCCc3ccccc3)o2)cc1 -27.3%, CCC(Sc1ncc(S(=O)(=O)c2ccc(Cl)cc2)c(=O)[nH]1)C(=O)Nc1ccc(OC)cc1 (stereo not given) -3.56%, COc1ccc(Cl)cc1NC(=O)CSc1nnc2[nH]c(=O)cc(-c3ccccc3)n12 -6.66%, Cc1ccc2[nH]c(=O)c3cc(C(=O)N(CCCOC(C)C)Cc4ccco4)sc3c2c1 1.47%, COc1ccc(-c2nn(-c3ccc(F)cc3)c3c2cnc2ccc(F)cc23)cc1OC -11.5%, CCCc1nn2c(=O)cc(COC(=O)C3CCCCC3)nc2s1 -0.415%, Cc1ccc(NC(=O)CCCn2c(=O)c3cccn3c3ccccc32)cc1Cl 2.86%, COc1ccc(OCC(=O)Nc2ccc(Cl)c(-c3nc4ncccc4o3)c2)cc1 -7.59%, O=C1CN(C(=O)COc2ccccc2)C(c2ccc(F)cc2)c2cc(Br)ccc2N1 (stereo not given) 0.339%, COC(=O)c1cc2sc(Cl)cc2n1CC(=O)Nc1cc(OC)cc(OC)c1 -8.22%, COC(=O)c1ccccc1NC(=O)c1oc2ccc3c(c2c1C)C(=O)CC(C)(C)O3 1.47%, CCOc1ccc(CCNC(=O)Cn2ccc3cc(S(=O)(=O)N4CCCCC4)ccc32)cc1 0%, COCCn1c(SCC(=O)c2c(C)[nH]c3ccccc23)nc2cc(C(=O)NC(C)C)ccc2c1=O -5.2%, CCN(CCCNC(=O)c1cc(Nc2ccc(OC)cc2)nc2ccccc12)c1cccc(C)c1 -0.641%, Cc1ccc(Cl)cc1NC(=O)Nc1cn(CC(C)C)c(=O)c2ccccc12 4.95%, Cc1ccccc1CN1C(=O)c2ccccc2Sc2ccc(C(=O)NCc3ccccc3)cc21 1.43%, O=C(Nc1ccccc1F)c1nc(SCc2ccccc2F)ncc1Cl -2.78%, COc1cccc(CNC(=O)c2ccc3c(c2)N(Cc2ccc(F)cc2Cl)C(=O)c2ccccc2S3)c1 9.19%, COc1ccc(-n2nc(C(=O)Nc3ccc(C)cn3)c3c4ccccc4n(C)c3c2=O)cc1Cl 1.01%, Cc1ccc(-c2nc(S(=O)(=O)c3ccc(C)cc3)c(SCC(=O)c3ccccc3)o2)cc1 -1.79%, Cc1cccc(C)c1NC(=O)Cn1c(=O)n(Cc2ccccc2Cl)c(=O)c2cccnc21 -3.25%, CCN(C(=O)CSc1nc2ccccc2n1Cc1ccccc1C#N)c1ccccc1 6.97%, CCOC(=O)c1ccc(NC(=O)CSc2nnc(-c3ccncc3)n2-c2ccccc2)cc1 -5.89%, Cc1ccc2c(C)c(C(=O)NCC(c3ccc(Cl)cc3)N3CCOCC3)oc2c1 (stereo not given) -3.28%, Cc1ccc(NC(=O)NC(C)c2c(-n3cccc3)sc(C)c2C)cc1F (stereo not given) 2.87%, COc1cc(NC(=O)C2CCN(c3nnc(C)c4c(C)n(-c5ccccc5)nc34)CC2)cc(OC)c1 -11.3%, Cc1ccc(-n2c(=O)[nH]c3cc(C(=O)NCCc4ccccc4)ccc3c2=O)cc1 -2.88%, CCOC(=O)c1ccccc1NC(=O)c1cnn(-c2ccc(OC)cc2)c1C1CCN(C(=O)OC(C)(C)C)CC1 4.04%, Cc1ccc2c(c1)c(=O)c1ccccc1n2CCCC(=O)Nc1ccc(Cl)cc1C 5%, CCOc1ccc(CNC(=O)c2cnc3c(C)cccn3c2=O)cc1 1.11%, Cc1cc(C)cc(NS(=O)(=O)c2ccc3[nH]cc(C(=O)NCc4ccco4)c(=O)c3c2)c1 0.0743%, CC(=O)c1ccc(NC(=O)CN2C(=O)CCc3cc(S(=O)(=O)N4CCC(C)CC4)ccc32)cc1 0%, COc1cccc(NC(=O)CCc2nnc3n(CC(C)C)c(=O)c4ccccc4n23)c1 -1.57%, O=C(/C=C/c1ccccc1)Nc1nc(-c2cccs2)ns1 -4.99%, CCCn1ccc2c(OCC(=O)Nc3ccc(C(F)(F)F)cc3)cccc2c1=O -4.2%, CCC(O)c1nc2ccccc2n1CCOc1cc(C)cc(C)c1 (stereo not given) -7.15%, COc1ccc(NC(=O)CSc2n[nH]c(-c3ccccc3)n2)cc1Cl 4.85%, O=C(Nc1ccccc1F)c1oc2ccccc2c1NC(=O)C12CC3CC(CC(C3)C1)C2 -3.51%, CCOc1ccccc1C(=O)Nc1cc2c(cc1N1CCCCC1)n(C)c(=O)n2C 5.19%, CCOc1ccccc1N(CC)C(=O)c1cc2c(=O)n(CC)c3ccccc3c2s1 -6.47%, CCOC(=O)c1noc2nc(C)n(CC(=O)Nc3ccc(Br)cc3C)c(=O)c12 -2.22%, COc1ccc(OC)c(-n2cnc3cc(C(=O)NCCc4ccccc4)ccc32)c1 0.936%, Cc1ccc(CN(C(=O)c2ccc([N+](=O)[O-])cc2)c2ccccn2)cc1 0.0686%, Cc1ccc(OCC(=O)Nc2ccccc2C(=O)OCc2cc(=O)n3c(C)csc3n2)cc1 -0.457%, CC(C)OC(=O)c1c(NC(=O)c2cc3nc(-c4ccccc4)cc(C(F)(F)F)n3n2)sc2c1CCCC2 -3.61%, Cc1ccc(-c2nnc3ccccc3c2C(=O)Nc2cccc(C(F)(F)F)c2)cc1 0.808%, CSc1nnc2c(n1)OC(c1cccc(O)c1Cl)Nc1ccccc1-2 (stereo not given) -14.8%, CC1=C(C(=O)Nc2ccc(C)cc2C)C(c2ccc[nH]2)n2ncnc2N1 (stereo not given) 0.394%, CC(C(=O)NCc1ccc(Cl)cc1)n1ccc2cc(S(=O)(=O)N3CCCC3)ccc21 (stereo not given) -7.98%, N#Cc1cc2c(=O)n3ccccc3nc2n(-c2nnc(SCc3ccccc3F)s2)c1=O -3.55%, COc1cc(-c2nnc(SCC(=O)Nc3cccc(C#N)c3)o2)cc(OC)c1OC 4.54%, CCOC(=O)C1CCCN(S(=O)(=O)c2ccc3c(c2)N(C)C(=O)CC(=O)N3C)C1 (stereo not given) 2.96%, CCc1ccc(CNC(=O)c2cnc3sc(N(CC)CC)nn3c2=O)cc1 0%, O=C(Cn1ncc2c3ccccc3n(Cc3ccc(Cl)cc3)c2c1=O)NC1CCCCCC1 4.05%, COc1ccc(CCNC(=O)CN2C(=O)COc3ccc(S(=O)(=O)N4CCCCCC4)cc32)cc1OC -1.41%, Cc1ccc(NC(=O)c2ccc(CN3CC(=O)N4CCCCC4C3=O)cc2)cc1C (stereo not given) -7.89%, CCOc1ccc(-n2c(=O)c3sc4ccccc4c3n(Cc3ccc(F)cc3)c2=O)cc1 1.28%, CCc1ccccc1NC(=O)C(=O)NCCc1sc(-c2cccc(C)c2)nc1C 2.85%, CCCCC(CC)Cn1c(Oc2ccccc2)nc2c1c(=O)n(C)c(=O)n2C (stereo not given) -5.21%, CC(C)c1cnc2c(c1SCC(=O)Nc1cccc([N+](=O)[O-])c1)c(=O)n(C)c(=O)n2C -0.407%, COCCCNc1ncnc2c1nnn2C -6.22%, CCn1c(SCC(=O)Nc2ccc(C)c(C)c2)nnc1-c1nonc1NC(C)=O -1.35%, Cc1ccc(Cl)cc1N1CCN(S(=O)(=O)c2ccc3c(c2)CC(=O)N3C)CC1 0.787%, Cc1ccc(N(CC(=O)Nc2ccc(OC(F)(F)F)cc2)S(=O)(=O)c2c(C)noc2C)cc1 -10.9%, Cc1[nH]c2c(C)cccc2c1CCNC(=O)c1cc2ccccc2oc1=O 8.35%, Cc1ccc(O)c(NC(=O)c2nc3nc(C)cc(C(F)F)n3n2)c1 -4.45%, COc1cccc(N2CCN(C(=O)c3nc(-c4ccc(Cl)cc4)n4c3CCCCC4)CC2)c1 -6.19%, COCCn1c(SCC(=O)c2c[nH]c3ccccc23)nc2cc(C(=O)NCC(C)C)ccc2c1=O -15.3%, O=c1oc2ccc3ccccc3c2cc1-c1nnc(Nc2cc(C(F)(F)F)ccc2Cl)s1 0.937%, O=S(=O)(c1cccc(Cl)c1)c1nnn2c1nc(NC1CCCC1)c1sccc12 -9.93%, CCc1nnc2n1N(C(C)=O)C(c1ccc(C(C)(C)C)cc1)=C(C(C)=O)S2 -7.95%, CCc1ccc(CNC(=O)c2cc3c(s2)-c2ccccc2OC3)cc1 -2.71%
